Data on 31 molecules can be found in publication PMC9911399, “Two distinct binding modes provide the RNA-binding protein RbFox with extraordinary sequence specificity”.

Sequences and labels used below:
T1: RBFOX1 RRM RbFoxmut (Fox-RRM*) (Homo sapiens, UniProt Q9NWB1 109-208, R118D;E147R;N151S;E152T)
T1 sequence: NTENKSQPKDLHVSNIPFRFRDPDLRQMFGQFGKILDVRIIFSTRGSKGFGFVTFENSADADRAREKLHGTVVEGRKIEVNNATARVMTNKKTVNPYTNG

B1: ACUUAGG (DNA:RNA)
RNA: GGGAGACCGGAAUUCAGAUUGUCCACUUAGGUUAAAUCCCGUCGUAGCCACCA
DNA 1: CAATCTGAATTCCGGTCTCCC
DNA 2: TGGTGGCTACGACGGGATT
B2: AUCGCCU (DNA:RNA)
RNA: B1 RNA with C26U, U27C, U28G, A29C, G30C, G31U
DNA 1: CAATCTGAATTCCGGTCTCCC
DNA 2: TGGTGGCTACGACGGGATT
B3: CACCUUA (DNA:RNA)
RNA: GGGAGACCGGAAUUCAGAUUGUCCCACCUUAUUAAAUCCCGUCGUAGCCACCA
DNA 1: CAATCTGAATTCCGGTCTCCC
DNA 2: TGGTGGCTACGACGGGATT
B4: CAAACAG (DNA:RNA)
RNA: B3 RNA with C27A, C28A, U29C, U30A, A31G
DNA 1: CAATCTGAATTCCGGTCTCCC
DNA 2: TGGTGGCTACGACGGGATT
B5: AUUUUAA (DNA:RNA)
RNA: B1 RNA with C26U, A29U, G30A, G31A
DNA 1: CAATCTGAATTCCGGTCTCCC
DNA 2: TGGTGGCTACGACGGGATT
B6: ACACCAA (DNA:RNA)
RNA: B1 RNA with U27A, U28C, A29C, G30A, G31A
DNA 1: CAATCTGAATTCCGGTCTCCC
DNA 2: TGGTGGCTACGACGGGATT
B7: CACGUAG (DNA:RNA)
RNA: B3 RNA with C28G, U30A, A31G
DNA 1: CAATCTGAATTCCGGTCTCCC
DNA 2: TGGTGGCTACGACGGGATT
B8: UACCCUC (DNA:RNA)
RNA: B3 RNA with C25U, U29C, A31C
DNA 1: CAATCTGAATTCCGGTCTCCC
DNA 2: TGGTGGCTACGACGGGATT
B9: UCUGCGG (DNA:RNA)
RNA: B1 RNA with A25U, U28G, A29C
DNA 1: CAATCTGAATTCCGGTCTCCC
DNA 2: TGGTGGCTACGACGGGATT
B10: AGCCUGA (DNA:RNA)
RNA: B3 RNA with C25A, A26G, U30G
DNA 1: CAATCTGAATTCCGGTCTCCC
DNA 2: TGGTGGCTACGACGGGATT
B11: AAAUCCA (DNA:RNA)
RNA: B1 RNA with C26A, U27A, A29C, G30C, G31A
DNA 1: CAATCTGAATTCCGGTCTCCC
DNA 2: TGGTGGCTACGACGGGATT
B12: GAGGAUA (DNA:RNA)
RNA: B3 RNA with C25G, C27G, C28G, U29A
DNA 1: CAATCTGAATTCCGGTCTCCC
DNA 2: TGGTGGCTACGACGGGATT
B13: UUACAUG (DNA:RNA)
RNA: B1 RNA with A25U, C26U, U27A, U28C, G30U
DNA 1: CAATCTGAATTCCGGTCTCCC
DNA 2: TGGTGGCTACGACGGGATT
B14: CGAUACU (DNA:RNA)
RNA: B1 RNA with A25C, C26G, U27A, G30C, G31U
DNA 1: CAATCTGAATTCCGGTCTCCC
DNA 2: TGGTGGCTACGACGGGATT
B15: UUCGUCG (DNA:RNA)
RNA: B3 RNA with C25U, A26U, C28G, U30C, A31G
DNA 1: CAATCTGAATTCCGGTCTCCC
DNA 2: TGGTGGCTACGACGGGATT
B16: AGAACAU (DNA:RNA)
RNA: B1 RNA with C26G, U27A, U28A, A29C, G30A, G31U
DNA 1: CAATCTGAATTCCGGTCTCCC
DNA 2: TGGTGGCTACGACGGGATT
B17: UGCCCAU (DNA:RNA)
RNA: B3 RNA with C25U, A26G, U29C, U30A, A31U
DNA 1: CAATCTGAATTCCGGTCTCCC
DNA 2: TGGTGGCTACGACGGGATT
B18: GGGCGAC (DNA:RNA)
RNA: B3 RNA with C25G, A26G, C27G, U29G, U30A, A31C
DNA 1: CAATCTGAATTCCGGTCTCCC
DNA 2: TGGTGGCTACGACGGGATT
B19: GGCCAAU (DNA:RNA)
RNA: B3 RNA with C25G, A26G, U29A, U30A, A31U
DNA 1: CAATCTGAATTCCGGTCTCCC
DNA 2: TGGTGGCTACGACGGGATT
B20: CAGCGUU (DNA:RNA)
RNA: B3 RNA with C27G, U29G, A31U
DNA 1: CAATCTGAATTCCGGTCTCCC
DNA 2: TGGTGGCTACGACGGGATT
B21: AAUACUU (DNA:RNA)
RNA: B1 RNA with C26A, U28A, A29C, G30U, G31U
DNA 1: CAATCTGAATTCCGGTCTCCC
DNA 2: TGGTGGCTACGACGGGATT
B22: GUUGUAG (DNA:RNA)
RNA: B1 RNA with A25G, C26U, U28G, A29U, G30A
DNA 1: CAATCTGAATTCCGGTCTCCC
DNA 2: TGGTGGCTACGACGGGATT
B23: UCCCGUG (DNA:RNA)
RNA: B3 RNA with C25U, A26C, U29G, A31G
DNA 1: CAATCTGAATTCCGGTCTCCC
DNA 2: TGGTGGCTACGACGGGATT
B24: ACCAGGU (DNA:RNA)
RNA: B1 RNA with U27C, U28A, A29G, G31U
DNA 1: CAATCTGAATTCCGGTCTCCC
DNA 2: TGGTGGCTACGACGGGATT
B25: GAUAGUC (DNA:RNA)
RNA: B3 RNA with C25G, C27U, C28A, U29G, A31C
DNA 1: CAATCTGAATTCCGGTCTCCC
DNA 2: TGGTGGCTACGACGGGATT
B26: GAGACUU (DNA:RNA)
RNA: B3 RNA with C25G, C27G, C28A, U29C, A31U
DNA 1: CAATCTGAATTCCGGTCTCCC
DNA 2: TGGTGGCTACGACGGGATT
B27: UAUCCGG (DNA:RNA)
RNA: B1 RNA with A25U, C26A, U28C, A29C
DNA 1: CAATCTGAATTCCGGTCTCCC
DNA 2: TGGTGGCTACGACGGGATT
B28: GCCACCC (DNA:RNA)
RNA: B1 RNA with A25G, U27C, U28A, A29C, G30C, G31C
DNA 1: CAATCTGAATTCCGGTCTCCC
DNA 2: TGGTGGCTACGACGGGATT
B29: UGCGUGA (DNA:RNA)
RNA: B3 RNA with C25U, A26G, C28G, U30G
DNA 1: CAATCTGAATTCCGGTCTCCC
DNA 2: TGGTGGCTACGACGGGATT
B30: AUGCCCA (DNA:RNA)
RNA: B3 RNA with C25A, A26U, C27G, U29C, U30C
DNA 1: CAATCTGAATTCCGGTCTCCC
DNA 2: TGGTGGCTACGACGGGATT
B31: GUUGCGA (DNA:RNA)
RNA: B1 RNA with A25G, C26U, U28G, A29C, G31A
DNA 1: CAATCTGAATTCCGGTCTCCC
DNA 2: TGGTGGCTACGACGGGATT

Positions count from the first letter of the chain named. The list shows a part of the results.

In this assay the target is T1, RBFOX1 RRM RbFoxmut (Fox-RRM*). Kind of assay: EMSA; HiTS-Eq, 1 nM pool, 10 min; buffer printed only for the single-RNA assays: 10 mM Tris pH 7.5, 150 mM NaCl, 3.4 mM EDTA, 0.001% NP-40, 30 C. The following applies: tags: His6 N-terminal (pET28a); label: 5' 32P. In outline: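 Purified RbFox RRM, wild type or mutant, was incubated for 10 min in 50 µL with 1 nM of a 5′-radiolabelled RNA pool carrying 7 randomized nucleotides, whose flanks were annealed to DNA oligonucleotides, over a series of increasing protein concentrations. Unbound RNA was resolved on 8% native PAGE, cut out, reverse-transcribed, barcoded by PCR and sequenced on an Illumina HiSeq 2500. Relative association constants were derived from changes in read counts for each RNA species versus the control reaction and normalised to the cognate motif.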
For orientation: Mobility shift assays separate free from complexed probe on a gel.
With B1, the binding signal is 0.0957 KA relative to UGCAUGU.
In the case of B2, the binding signal is 0.0874 KA relative to UGCAUGU.
On to B3, for which the binding signal was 0.106 KA relative to UGCAUGU.
Turning to B4, the binding signal is 0.0731 KA relative to UGCAUGU.
Consider B5, for which the binding signal was 0.118 KA relative to UGCAUGU.
Take B6: the binding signal is 0.107 KA relative to UGCAUGU.
Consider B7, for which the binding signal is 0.163 KA relative to UGCAUGU.
Consider B8, for which the binding signal is 0.0459 KA relative to UGCAUGU.
The same measure for B9: 0.083 KA relative to UGCAUGU.
With B10, the binding signal was 0.09 KA relative to UGCAUGU.
The same measure for B11: 0.0742 KA relative to UGCAUGU.
Consider B12, for which the binding signal is 0.0968 KA relative to UGCAUGU.
For B13, the binding signal is 0.0647 KA relative to UGCAUGU.
With B14, the binding signal is 0.0847 KA relative to UGCAUGU.
Take B15: the binding signal is 0.124 KA relative to UGCAUGU.
With B16, the binding signal is 0.0619 KA relative to UGCAUGU.
The same measure for B17: 0.086 KA relative to UGCAUGU.
The same measure for B18: 0.0925 KA relative to UGCAUGU; for B19: 0.0535 KA relative to UGCAUGU; for B20: 0.112 KA relative to UGCAUGU.
On to B21, for which the binding signal is 0.124 KA relative to UGCAUGU.
As to B22, the binding signal is 0.168 KA relative to UGCAUGU.
The same measure for B23: 0.117 KA relative to UGCAUGU; for B24: 0.11 KA relative to UGCAUGU; for B25: 0.0781 KA relative to UGCAUGU.
On to B26, for which the binding signal is 0.0483 KA relative to UGCAUGU.
For B27, the binding signal was 0.076 KA relative to UGCAUGU.
The same measure for B28: 0.0541 KA relative to UGCAUGU; for B29: 0.159 KA relative to UGCAUGU; for B30: 0.0977 KA relative to UGCAUGU.
For B31, the binding signal is 0.0969 KA relative to UGCAUGU.
